According to the BET-seq Pho4 binding data (Le et al. 2018):
The other results are listed elsewhere or left out. The energies were worked out here from pooled read counts, against the library average; single values are noisy.

target: T1, Pho4 (S. cerevisiae) (UniProt P07270); assay: relative binding free energy (BET-seq); higher = weaker binding; conditions: reference: library average
T1 sequence: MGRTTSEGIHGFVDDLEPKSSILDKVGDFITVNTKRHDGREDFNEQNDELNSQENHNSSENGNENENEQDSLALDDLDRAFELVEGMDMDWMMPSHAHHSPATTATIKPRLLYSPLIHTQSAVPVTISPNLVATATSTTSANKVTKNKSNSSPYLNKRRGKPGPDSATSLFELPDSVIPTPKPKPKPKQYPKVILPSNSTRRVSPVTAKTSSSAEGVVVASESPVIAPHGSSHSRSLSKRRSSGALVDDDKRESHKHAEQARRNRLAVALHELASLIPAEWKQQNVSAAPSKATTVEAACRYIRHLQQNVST

Sequence	relative binding free energy
ATTTGCACGTGGATAA	-0.15 kcal/mol
ATGTTCACGTGTGGAT	0.3 kcal/mol
TATGTCACGTGGTGAG	0.02 kcal/mol
TTTGACACGTGATTTT	0.15 kcal/mol
TGGGCCACGTGCGTGG	-0.19 kcal/mol
GGGTGCACGTGCTGGG	0 kcal/mol
GGTATCACGTGGTGAC	0.15 kcal/mol
CTTTACACGTGGTAGT	0.13 kcal/mol
TATTGCACGTGAAGGT	0.18 kcal/mol
GAGGGCACGTGGTTAC	-0.07 kcal/mol
GGAGACACGTGATTTT	0.2 kcal/mol
AGATTCACGTGCTGTG	0.2 kcal/mol
CGGATCACGTGGTTGT	0.14 kcal/mol
TGTCTCACGTGGGTAG	0.07 kcal/mol
GAGGTCACGTGGGTAT	-0.02 kcal/mol
TGCCGCACGTGAGGGG	0.13 kcal/mol
TTGGGCACGTGGTAAC	-0.27 kcal/mol
GGAATCACGTGGTTGA	0.21 kcal/mol
GTTGACACGTGCAGAG	0.12 kcal/mol
GGAGTCACGTGGAAGG	0.19 kcal/mol
ATTCACACGTGGGTAG	-0.06 kcal/mol
AGGTTCACGTGCAGGT	0.25 kcal/mol
AATATCACGTGGCAGG	0.15 kcal/mol

Sequence	relative binding free energy
GTTGCCACGTGCGGAG	0.07 kcal/mol
GTGAGCACGTGGTGTA	-0.11 kcal/mol
ATTTGCACGTGAGTTT	0.38 kcal/mol
TTTGGCACGTGACATG	0 kcal/mol
TGTGGCACGTGTATCG	-0.11 kcal/mol
TTTAGCACGTGTACGT	0.03 kcal/mol
CAGGGCACGTGTTGGG	-0.03 kcal/mol
GACAGCACGTGGGTAG	0.04 kcal/mol
GCGTTCACGTGGTGTT	0.16 kcal/mol
TGGAGCACGTGCGATG	-0.12 kcal/mol
TGGCACACGTGTTGTG	0.12 kcal/mol
GGCGTCACGTGTATGG	0.17 kcal/mol
GAGGGCACGTGGAGTC	0.03 kcal/mol
TAAATCACGTGTTAAG	0.09 kcal/mol
GTGACCACGTGAGGGT	0.19 kcal/mol
TAGAACACGTGGGTTA	-0.21 kcal/mol
TTGAGCACGTGGCAGA	0 kcal/mol
GGGATCACGTGGAATG	0.26 kcal/mol
TCTGACACGTGATTGG	0.02 kcal/mol
TTGGGCACGTGGCTTC	-0.16 kcal/mol
TTTGGCACGTGCGCTT	-0.17 kcal/mol
TTTTACACGTGATTAA	0.23 kcal/mol
TGGGGCACGTGAGTTG	0.21 kcal/mol

Sequence	relative binding free energy
TGTATCACGTGAGGTA	0.32 kcal/mol
AAGGACACGTGTTAAG	0.13 kcal/mol
TTGTTCACGTGTCAGT	0.23 kcal/mol
CTCATCACGTGGTGTG	0.04 kcal/mol
TGGGTCACGTGGACTT	0.15 kcal/mol
TGTGACACGTGGTAAG	0 kcal/mol
GATGACACGTGGGCAG	-0.06 kcal/mol
TAAAACACGTGTTTAT	-0.06 kcal/mol
GTTAACACGTGCAGTG	0.14 kcal/mol
ATTTACACGTGATGAT	0.04 kcal/mol
TTTTACACGTGTTAAC	0.15 kcal/mol
ATCGTCACGTGGGTGT	0.06 kcal/mol
TATGTCACGTGGTGAT	0.12 kcal/mol
CGACACACGTGGGGTT	-0.05 kcal/mol
CAGATCACGTGGTGGG	0.09 kcal/mol
TATGGCACGTGATATT	-0.04 kcal/mol
GGTAACACGTGGGGTG	-0.13 kcal/mol
CGAGTCACGTGGAGGA	0.14 kcal/mol
TAGTGCACGTGATAAG	0.07 kcal/mol
GCGGTCACGTGTGATT	0.43 kcal/mol
GTACGCACGTGGTTAT	-0.08 kcal/mol
GGCTTCACGTGAGAGG	0.39 kcal/mol
GGTAACACGTGGAGAT	-0.03 kcal/mol

Sequence	relative binding free energy
GGTGTCACGTGCGTGG	0.07 kcal/mol
GGGTTCACGTGTTTTT	0.45 kcal/mol
ATTTTCACGTGGGGCG	0.15 kcal/mol
CGCCGCACGTGGTGGG	-0.27 kcal/mol
TTCTACACGTGTGGGA	0.14 kcal/mol
GATTGCACGTGAAGGT	0.21 kcal/mol
TTGTTCACGTGACTGT	0.27 kcal/mol
TATGCCACGTGGGGTA	-0.29 kcal/mol
TGTTGCACGTGAAAGG	0.13 kcal/mol
GTAGTCACGTGATAGG	0.18 kcal/mol
AGAGTCACGTGTAGTG	0.15 kcal/mol
GGAATCACGTGGTTGT	0.26 kcal/mol
GAGGTCACGTGTGCAT	0.18 kcal/mol
AGTGACACGTGATTGA	0.12 kcal/mol
GGTGGCACGTGAAGCA	0.18 kcal/mol
TATCACACGTGTGTAT	0.01 kcal/mol
AATTGCACGTGTTATT	0.03 kcal/mol
TCTTTCACGTGTCAGG	0.31 kcal/mol
TATGTCACGTGGAAAT	0.19 kcal/mol
TATCGCACGTGGAGGT	-0.06 kcal/mol
TTCAGCACGTGTGGGT	0.04 kcal/mol
CGTTGCACGTGTGAGG	0 kcal/mol
AGTGTCACGTGGCATT	0.03 kcal/mol

Sequence	relative binding free energy
TGTAACACGTGTACGG	0.03 kcal/mol
AGAGGCACGTGGATGT	-0.07 kcal/mol
GTGCCCACGTGGAGGT	-0.19 kcal/mol
TTAGTCACGTGGCATG	0.14 kcal/mol
GAAGGCACGTGGGCCG	-0.11 kcal/mol
ATGAGCACGTGTGAGT	0.09 kcal/mol
TTGCACACGTGGTGGG	-0.08 kcal/mol
TTAGACACGTGGAGGC	0.12 kcal/mol
TGGAGCACGTGTGTGC	-0.06 kcal/mol
AGCGGCACGTGTAGTG	0.05 kcal/mol
TCGGCCACGTGTTTGT	-0.13 kcal/mol
GCGTTCACGTGTGGGC	0.35 kcal/mol
TTAGGCACGTGGAAGC	-0.03 kcal/mol
TGGAGCACGTGAGCGG	0.08 kcal/mol
GTGGCCACGTGTGCAG	-0.14 kcal/mol
GCTTTCACGTGTATTG	0.02 kcal/mol
TGGCGCACGTGTAGTT	0.05 kcal/mol
TTGCACACGTGTGAGG	-0.09 kcal/mol
GTCGTCACGTGATGAG	0.19 kcal/mol
GCGGTCACGTGGATGG	0.11 kcal/mol
TTAGTCACGTGGAATC	0.18 kcal/mol
TGATTCACGTGCGGAT	0.53 kcal/mol
AAGGGCACGTGAAGTG	0.18 kcal/mol
